PubChem BioAssay AID652104 (National Center for Advancing Translational Sciences (NCATS), 2013)
The whole screen tested about 410,000 compounds, of which about 7,200 (1.8%) were called active. The shares of active, inactive and inconclusive entries below differ from those in the screen. The call rests on the fitted dose curve; in most records, active means well fitted activation curve with a large enough effect; inconclusive means small, poorly fitted or top-dose-only effect, or another doubt; inactive means no such curve, though single readings can be large or run the other way. No potency is given beside an inconclusive call; the fits are too rough.

Test: qHTS of TDP-43 Inhibitors; further: nearly all actives have a fitted effect of over 50% in size; on growth rescue (activation): % of control where 0% means no effect
Details: TDP-43 expressing yeast growth rescue, BacTiter-Glo, 24 h; growth rescue (activation): at 46.1 µM (top of the series) unless noted
Summary of the method: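 Yeast expressing TDP-43 (pregrown in raffinose, seeded at OD600=0.02 in galactose medium) exposed to compounds 24 hr at 30 deg C. Growth read by BacTiter-Glo luminescence; rescue of toxicity appears as increased signal.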
Potency means the concentration at half of the fitted maximal effect; tags describe the fitted curve by direction and shape.

| Compound | Potency | growth rescue (activation) |
| --- | --- | --- |
| COc1ccc(NC(=O)CSc2c3c(nc4ccc(Cl)cc24)CCCC3)cc1Cl | active: 11.2 µM |  |
| COc1ccc(N2CCN(CCCNC(=O)c3ccc4nc(CCc5ccccc5)oc4c3)CC2)cc1 |  | inactive: -12.4% |
| CCc1ccc(CCC(=O)Nc2nccs2)o1 | inconclusive [activator, partial curve] |  |
| Oc1ccc(-c2nnc(SCc3ccccc3)o2)cc1 |  | inconclusive: 95.6% [activator] |
| O=C1NC(c2cc3c(cc2Cl)OCO3)Oc2ccccc21 (stereo unspecified) | active: 22.4 µM |  |
| CCCS(=O)(=O)N1CCN(C(=O)COc2ccc(-c3ccccc3)cc2)CC1 | inconclusive [activator, partial curve] |  |
| COc1ccc(-c2ccc(CCC(=O)O)o2)cc1 | active: 10 µM |  |
| CCCCN1CNC(=S)N(c2cc(C)ccc2C)C1 | inconclusive [activator, single point] |  |
| COC(=O)Cc1cc(=O)n2[nH]c(C)cc2n1 |  | inactive: -14% |
| Cc1nnc(NC(=O)CCC2CCCCC2)s1 | inconclusive [activator, full curve] |  |
| Cc1ccc(-c2cccc(CN3CCN(C(C)C)C(CCO)C3)c2)o1 (stereo unspecified) | inconclusive [activator, partial curve] |  |
| O=C(Oc1ccccc1Cl)c1ccc(N2CCOCC2)c([N+](=O)[O-])c1 | inconclusive [activator, partial curve] |  |
| Nc1c(C(=O)NCc2ccc(F)cc2)c2nc3ccccc3nc2n1CCCN1CCOCC1 |  | inactive: -21.1% |
| C/C(=N\Nc1nc(C(C)(C)C)cs1)c1ccccc1 | active: 22.4 µM |  |
| N#Cc1ccc(CSc2nnc(-c3cnccn3)o2)cc1 | inconclusive [activator, partial curve, poor fit] |  |
| Cc1ccc(CNC(=O)c2sc3nc4n(c(=O)c3c2C)CCCC4)cc1 | active: 12.6 µM |  |
| OC1c2cc(Cl)ccc2-c2c(Cl)cc(Cl)cc21 (stereo unspecified) | inconclusive [activator, single point] |  |
| COC(=O)C[C@H]1C[C@H]2c3cc(NC(=O)Cc4ccncc4)ccc3O[C@H]2[C@@H](CO)O1 | inconclusive [activator, full curve, poor fit] |  |
| CSc1cc(N2CCOCC2)nc(-c2ccccc2Cl)n1 | inconclusive [activator, single point] |  |
| COC(=O)Nc1nc(-c2ccccc2)c(C(=O)c2ccc(Cl)cc2)s1 |  | inactive: 6.89% |
| O=C(CNC(=O)c1cccs1)OCC(=O)c1ccc2ccccc2c1 | inconclusive [activator, single point] |  |
| C=CCN1C(=O)c2ccc(C(=O)N(C)CC(=O)Nc3ccccc3Br)cc2C1=O |  | inactive: 0% |
| CC(=O)OCc1c(-c2ccccc2)c2cc([N+](=O)[O-])ccc2n1C |  | inactive: -3.02% |
| CCOC(=O)Cc1csc(N/N=C\c2cccc(Br)c2)n1 | inconclusive [activator, single point] |  |

| Compound | Potency | growth rescue (activation) |
| --- | --- | --- |
| Cc1nc(SCC(=O)NC2CCCCC2C)c(C#N)c(C)c1C (stereo unspecified) | inconclusive [activator, partial curve] |  |
| CCc1nc2c(OCc3ccc(OC)cc3)cccn2c1N(C)C(=O)c1ccco1 | inconclusive [activator, partial curve] |  |
| Cc1cccc(NC(=S)Nc2ccc(Br)cc2)c1 | inconclusive [activator, single point] |  |
| COc1ccc(-n2c(C)nc3sc4c(c3c2=O)CCC4)cc1 | active: 12.6 µM |  |
| O=C(Cn1c(-c2cncs2)nc2ccccc21)NCCc1ccccc1 | inconclusive [activator, partial curve, poor fit] |  |
| Fc1ccccc1COc1ccc(Br)cc1CNCc1ccncc1 | inconclusive [activator, single point] |  |
| COc1ccc(C2CC(=O)CCN2S(=O)(=O)c2ccc(C)cc2)cc1 (stereo unspecified) | inconclusive [activator, single point] |  |
| CCCCCCCn1ccc(=N)cc1 |  | inactive: 4.93% |
| COc1ccc(CC(=O)OCC(=O)NC2CCCC(C)C2C)cc1OC (stereo unspecified) |  | inconclusive: 14.8% [activator] |
| CC(C)C(=O)n1nc(-c2cccnc2)nc1NCc1ccc(F)cc1 | inconclusive [activator, single point] |  |
| CN(CC(=O)Nc1ccc(Cl)c(C(F)(F)F)c1)C(=O)c1ccc2c(c1)OCCO2 |  | inactive: 15.2% |
| CC(C)(Cc1cc(CC(C)(C)C(=O)O)cc(C(C)(C)C)c1)C(=O)O | active: 35.5 µM |  |
| CCOC(=O)c1c(-c2cccc(C)c2)csc1NC(=O)c1c(-c2ccccc2)noc1C | inconclusive [activator, full curve, poor fit] |  |
| O=C(c1ccc2c(c1)N(Cc1ccccc1)C(=O)c1ccccc1S2(=O)=O)N1CCOCC1 | inconclusive [activator, full curve] |  |
| Cc1ccccc1S(=O)(=O)NC(=O)C1(C)CCN1C(=O)CCc1ccc(Cl)cc1Cl (stereo unspecified) | inconclusive [activator, single point] |  |
| Cc1ccc2c(c1)[C@H]1[C@H](CO2)[C@H](c2ccccc2)[C@]2(C)C(=O)Nc3cc(F)ccc3C(=O)N12 | inconclusive [activator, single point] |  |
| CC1CCN(C(c2ccc(F)cc2)c2sc3nc(-c4ccco4)nn3c2O)CC1 (stereo unspecified) |  | inactive: -10.9% |
| Cc1cccc(NC(=O)CCS(=O)(=O)c2cc3c(cc2Cl)NC(=O)CO3)c1 | inconclusive [activator, single point] |  |
| Cc1cc(Cl)cc(Br)c1OCCCCn1cncn1 | inconclusive [activator, single point] |  |
| O=C(Nc1ccc2c(c1)OCCO2)C1CC(c2ccccc2Cl)=NO1 (stereo unspecified) | inconclusive [activator, partial curve] |  |
| O=C(C[n+]1ccccc1)N/N=C/c1cc(Br)cc(Br)c1O | inconclusive [activator, single point] |  |
| CC(=O)Nc1coc2ccc(Br)cc12 | inconclusive [activator, partial curve] |  |
| CCCCNC(=O)CSc1nc2ccccc2n1S(=O)(=O)c1ccc(Cl)cc1 | inconclusive [activator, partial curve, poor fit] |  |
| COc1ccc(C(=O)Nc2nc(-c3ccc(Br)cc3)ns2)cc1 |  | inactive: 7.77% |

| Compound | Potency | growth rescue (activation) |
| --- | --- | --- |
| O=C(NCc1ccco1)c1ccc2sc([C@H]3C[C@H](O)[C@@H](CO)O3)nc2c1 |  | inactive: 17.6% |
| Cc1cc(C(=O)CCl)c(C)n1Cc1ccco1 | active: 10 µM |  |
| CCOC(=O)c1sc2nc(-c3cccnc3)ccc2c1N | inconclusive [activator, partial curve] |  |
| Cc1n[nH]c(=O)c2c(NC(=O)CSc3nc4ccccc4c(=O)n3CCCOC(C)C)oc(C)c12 | inconclusive [activator, partial curve] |  |
| COC(=O)C[C@@H]1C=C[C@H](NS(=O)(=O)c2cccc(F)c2)[C@@H](CO)O1 | inconclusive [activator, partial curve] |  |
| C[C@@H]1CN([C@@H](C)CO)S(=O)(=O)c2ccc(-c3ccccc3)cc2O[C@@H]1CN(C)Cc1ccccc1C(=O)O | inconclusive [activator, partial curve, poor fit] |  |
| CSc1ncccc1C(=O)OCc1nc2ccsc2c(=O)[nH]1 | inconclusive [activator, partial curve] |  |
| COc1ccc(OC)c(NS(=O)(=O)c2c(C)nc3sccn3c2=O)c1 | inconclusive [activator, full curve, poor fit] |  |
| O=C(C1CC=CCC1)N1CCC(CO)(Cc2ccc(Cl)cc2)CC1 (stereo unspecified) | inconclusive [activator, partial curve] |  |
| Cc1cccc(C)c1OCc1nnc2c3cnn(C)c3ncn12 | inconclusive [activator, single point] |  |
| COc1ccc(N2CCN(C(c3ccccc3OC)c3nnnn3C3CCCC3)CC2)cc1 (stereo unspecified) | inconclusive [activator, partial curve, poor fit] |  |
| O=C1C=C(OCCF)CC(c2ccccc2C(F)(F)F)O1 (stereo unspecified) | inconclusive [activator, single point] |  |
| O=C(NC1CC(=O)N(c2ccc(F)cc2)C1)c1ccc(S(=O)(=O)N2CCOCC2)cc1 (stereo unspecified) |  | inactive: 7.28% |
| Cc1cc(C)n(-c2nc(NC(C)C)nc(NC(C)C)n2)n1 | inconclusive [activator, partial curve] |  |
| N#CC(C(=O)c1ccccc1)=C1SCCS1 | inconclusive [activator, single point] |  |
| O=c1c2ccccc2nc(-c2ccccc2)n1Cc1ccccc1 | active: 22.4 µM |  |
| O=C1CCC(C(=O)Nc2cccc(Oc3ccccc3)c2)=NN1 | inconclusive [activator, partial curve] |  |
| O=C(OCc1nc(-c2ccccc2Cl)no1)c1ccco1 | inconclusive [activator, single point] |  |
| Cc1cccc(-n2c(C)cc(/C=N/NC(N)=S)c2C)c1 | active: 35.5 µM |  |
| CCOC(=O)C=Cc1ccc(C(=O)OCC)[nH]1 | inconclusive [activator, partial curve] |  |
| COc1ccc(S(=O)(=O)c2cn(C)c3cc(N4CCCCCC4)c(F)cc3c2=O)cc1 |  | inactive: 15.9% |
| CC1CCCC(C)N1S(=O)(=O)c1ccc(NC(=O)CNCC2CCCO2)cc1 (stereo unspecified) |  | inactive: -25.9% |
| COc1ccccc1OCCCn1c(=O)oc2ccc(C)cc21 | inconclusive [activator, partial curve] |  |
